Experimental data as given in PubChem BioAssay (NCI).
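How tested: cells in 96-well plates exposed to compound for 48 hours at five concentrations. GI50 marks 50% less growth. The concentration for full growth arrest is given as TGI.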

tested on: NCI-H322M lung; experiment: NCI-60 cell line screen, 48 h

Structure (SMILES)	TGI	GI50
CCOC(=O)NC(=O)c1cn(CCCOC(=O)NCCCCCCNC(=O)OCCCn2cc(C(=O)NC(=O)OCC)c(=O)[nH]c2=O)c(=O)[nH]c1=O	> 100 µM	–
CC1=NC(C(C)C)C(=O)O1 (stereo not given)	> 100 µM	–
COC(=O)C1=C(c2ccc3c(c2)OCO3)OC(c2ccc3c(c2)OCO3)C1 (stereo not given)	> 100 µM	–
CCOC(=O)c1nnsc1NN=C(C)C	> 100 µM	–
CC(C)(O)CO/N=C1\C(c2c(O)[nH]c3ccccc23)=Nc2ccccc21	> 37.1 µM	–
CCOC(=O)c1[nH]cc(C)c1-c1c[nH]c2ccccc12	> 100 µM	–
NC(=NCCN1CCCCCCC1)NO	> 100 µM	–
Cc1coc2c1C(=O)C(=O)c1c-2ccc2c1CCCC2(C)C	> 36.8 µM	–
Nc1cccc2c1C1=NNC(=O)CC1C2 (stereo not given)	> 100 µM	–
COc1c(O)c(O)c2c(c1O)C(=O)c1cc(C)cc(O)c1C2=O	> 100 µM	–
C=CC[C@@H]1/C=C(\C)C[C@H](C)C[C@H](OC)[C@H]2O[C@@](O)(C(=O)C(=O)N3CCCC[C@H]3C(=O)O[C@H](/C(C)=C/C3CC[C@@H](O)[C@H](OC)C3)[C@H](C)[C@@H](O)CC1=O)[C@H](C)C[C@@H]2OC (stereo not given in full)	31.9 µM	15.8 µM
COc1ccc(-c2cc(-c3cc(C)ccc3O)[nH]c(=O)n2)cc1	> 100 µM	–
COc1ccc(NC(=O)CC(=O)N2N=C(N(CCC#N)c3cccc(C)c3)CC2c2ccccc2)cc1 (stereo not given)	> 100 µM	–
O=NN/C(=C1\Nc2ccc([N+](=O)[O-])cc2NC1=O)C(O)c1ccc([N+](=O)[O-])cc1 (stereo not given)	> 100 µM	–
COC(=O)/C(=N\NC(=S)NN)C(C(=O)OC)C(=O)C(=O)Nc1cccc(C(F)(F)F)c1 (stereo not given)	> 100 µM	–
COC1=CC(c2ccc[nH]2)=N/C1=C\c1[nH]c(C)c(C(C)=O)c1C	> 100 µM	9.76 µM
O=[N+]([O-])c1cc(-c2nnc(C34CC5CC(CC(C5)C3)C4)o2)cc([N+](=O)[O-])c1	> 100 µM	–
C=C(C)[C@@H]1CC[C@]2(C(=O)O)CC[C@]3(C)[C@H](CC[C@@H]4[C@@]5(C)C/C(=C/c6ccc(OC)cc6)C(=O)C(C)(C)[C@@H]5CC[C@]43C)[C@@H]12	8.45 µM	2.41 µM
CCCCCNC(=O)c1c(O)[nH]c(=S)[nH]c1=O	> 100 µM	–
CC(C(=O)O)/C(=C\c1ccc2c(c1)OCO2)C(=O)O (stereo not given)	> 67.3 µM	–
O=C(Nc1ccc(OCc2nnc(-c3ccccc3)o2)c(F)c1)Nc1ccc(Cl)c(C(F)(F)F)c1	8.58 µM	2.25 µM
O=S(=O)(CCNCc1ccc(-c2ccc3ncnc(Nc4ccc(OCc5cccc(F)c5)c(Cl)c4)c3c2)o1)c1ccccc1	> 25 µM	> 18.4 µM
CCN(CC)CCCCNc1ncc2cc(-c3cc(OC)cc(OC)c3)c(NC(=O)NC(C)(C)C)nc2n1	19.5 µM	5.57 µM
NC(=O)CCC(CCC(N)=O)(CCC(N)=O)[N+](=O)[O-]	> 100 µM	–
C=C(C)[C@H]1C[C@@H]2O[C@@](O)(/C(C)=C\C(=O)/C=C(/C)C[C@H]3OC(=O)[C@@]24O[C@H]34)[C@@H]1O	> 100 µM	–

Structure (SMILES)	TGI	GI50
COc1cc2c(cc1OC)-c1c(oc3cc(OC4OC(CO)C(O)C(O)C4O)c(OC)cc3c1=O)C(O)O2 (stereo not given)	> 100 µM	–
CC1=CC(=O)C(=CN2C(=O)/C(=C\c3cccnc3)NC2=S)C(=O)O1	> 100 µM	–
Cc1c(C(=O)/C=C/c2c(Cl)cccc2Cl)c(=O)n(-c2ccccc2)n1C	> 100 µM	–
Nc1ccc(-c2nc3ccccc3o2)cc1S	47.2 µM	15.6 µM
Cn1c(=O)cc(N=Nc2ccc(Cl)c(Cl)c2)[nH]c1=O	> 100 µM	–
Cn1c(=O)n2c(-c3ccccc3)c(-c3ccccc3)n2c1=O	> 100 µM	–
OCCCc1cc(O)c2c(c1)C(CO)C(c1ccc(O)c(O)c1)O2 (stereo not given)	> 100 µM	–
Cc1ccc([N+](=O)[O-])cc1S(=O)(=O)Nc1ccc(C2=NN(C(=O)c3ccccc3)C(c3cccs3)C2)cc1 (stereo not given)	> 100 µM	–
O=C1CCC(N2Cc3c(C#CCCCNC(=O)c4cc5c(o4)C(=O)c4ccccc4C5=O)cccc3C2=O)C(=O)N1 (stereo not given)	7.67 µM	2.7 µM
O=[N+]([O-])C(=C(N1CCCCC1)N1CCCCC1)/C(Cl)=C(\Cl)[N+](=O)[O-]	38.1 µM	–
COC(=O)c1ccc(COC(=O)N2C=CCC2C(=O)O)cc1 (stereo not given)	> 100 µM	–
CCOC(=O)C(C(=O)OCC)=C1N[C@H](C(=O)OCC)CS1	> 100 µM	–
CC(=O)O[C@H]1CC[C@@]2(C)C(=C[C@H](c3ccc(O)cc3)[C@H]3[C@@H]4CC[C@H](OC(C)=O)[C@@]4(C)CC[C@@H]32)C1	38.2 µM	–
N#C/C(=C1C=C/C(=N\O)C(Cl)=C\1)c1ccccc1	> 100 µM	10.5 µM
O=C1OC(c2ccccc2)=N/C1=C\c1cc(Cl)ccc1Cl	> 100 µM	–
N#CCCOCN(CO)c1nc(N(CO)COCCC#N)nc(N(CO)COCCC#N)n1	> 100 µM	–
NC(=O)Nc1c([N+](=O)[O-])cc(C(F)(F)F)cc1[N+](=O)[O-]	> 100 µM	–
Cc1c(NC(=O)c2cc([N+](=O)[O-])cc([N+](=O)[O-])c2)c(=O)n(-c2ccccc2)n1C	> 100 µM	–
COc1cc(Nc2nc3cc(C(F)(F)F)ccc3nc2-c2ccccc2)cc(OC)c1OC	> 100 µM	–
CN(C)[C@H]1CC[C@H]2[C@@H]3CCC4C[C@@H](NC(=O)NC(Cc5ccccc5)c5nccs5)CC[C@]4(C)[C@H]3CC[C@]12C (stereo not given in full)	3.24 µM	–
CC1OC(n2c3ccccc3c3c4c(c5c6ccccc6[nH]c5c32)C(=O)N(CCN2CCOCC2)C4=O)CC(O)C1O (stereo not given)	11.8 µM	3.73 µM
C[C@@H](CO)C1=CC(C#C[Si](C)(C)C)N(C(=O)Oc2ccccc2)c2ccccc21 (stereo not given in full)	57.5 µM	–
CCCC1=C(C(=O)OCC)C(c2ccccc2OC)C(C#N)=C(N)O1 (stereo not given)	> 100 µM	> 100 µM
CCOC(=O)c1c(-c2ccccc2)nc2c(OC)nccn12	> 100 µM	–
